Source: PubChem BioAssay AID504832 (National Center for Advancing Translational Sciences (NCATS), 2011)
Values joined by “and” are separate entries in the source; they are usually repeats but may differ in a detail not shown here. Equal values may be shown once. Screen size: about 310,000 compounds; about 18,000 (5.8%) were called active. This list was built around the results that the source calls inconclusive (neither active nor inactive); the mix of calls is not that of the screen. Calls follow the shape of the dose curve; as a rule, active = well fitted inhibition curve with a large enough effect; inconclusive = small, poorly fitted or top-dose-only effect, or another doubt; inactive = no such curve, though single readings can be large or run the other way. A potency beside an inconclusive call is a rough fit, not a confirmed value.

Assay: Primary qHTS for delayed death inhibitors of the malarial parasite plastid, 48 hour incubation
Conditions: P. falciparum luciferase growth in erythrocytes; series mostly up to 28.7 µM
Outline: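 A one-generation exposure of luciferase-tagged malaria parasites in RPMI 1640/Albumax erythrocyte culture, 37 C and 5% CO2. Inhibition is inferred from decreased luminescence after adding detection reagent.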
Potency is read from the fitted curve at half-maximal effect; tags tell the direction and shape of the fitted curve.

| Compound | Potency |
| --- | --- |
| Nc1nnc(CCCCCc2nnc(N)s2)s1 | inconclusive: 10.4 µM [inhibitor, single point] |
| COc1ccc(OCCCC(=O)N(C)CC(=O)Nc2ccccc2Cl)cc1 | inactive |
| Cc1ccc(Nc2ccc([N+](=O)[O-])cn2)cc1Cl | inconclusive: 18.5 µM [inhibitor, single point] |
| O=C1CCc2cc(S(=O)(=O)N3CCCCC3)cc3c2N1CC3 | inconclusive: 10.4 µM [inhibitor, single point] |
| CCOC(=O)CC1(C)SC(NC(C)=O)=NN1C(C)=O (stereo not given) | inconclusive: 11.7 µM [inhibitor, single point] |
| COc1ccc(S(=O)(=O)NC2CCCCCC2)c(OC)c1 | inconclusive: 10.4 µM [inhibitor, partial curve] |
| COc1ccc(NC(=S)NCc2ccccc2)c(OC)c1 | inconclusive: 11.7 µM [inhibitor, single point] |
| O=C(Nc1ccncc1)Nc1ccc(Cl)cc1Cl | active: 1.65 µM |
| COc1ccc(C(=O)NC(=S)N(Cc2ccccc2)Cc2ccccc2)cc1 | inactive |
| COc1ccc(F)cc1S(=O)(=O)N1CCC2(CC1)OCCN2S(=O)(=O)c1cccs1 | inconclusive: 10.4 µM [inhibitor, single point] |
| COCCn1cnnc1SCC(=O)Nc1cccc(S(=O)(=O)N(C)c2ccccc2)c1 | inconclusive: 3.29 µM [inhibitor, partial curve, poor fit] |
| Cc1ccc(NC(=O)CCC(=O)OCC(=O)c2ccc(Oc3ccc([N+](=O)[O-])cc3)cc2)c(C)c1 | inactive |
| COc1ccccc1N1CCN(C(=O)C2CCN(S(=O)(=O)c3ccc(C)cc3)CC2)CC1 | inconclusive: 11.7 µM [inhibitor, partial curve] |
| COc1cccc(N(CC(=O)NCCSCc2ccco2)S(=O)(=O)c2ccccc2)c1 | inconclusive: 9.28 µM [inhibitor, single point] |
| O=C(c1ccco1)N(CCC(c1ccccc1)c1ccco1)Cc1ccco1 (stereo not given) | inconclusive: 0.104 µM [inhibitor, partial curve, poor fit] |
| c1ccc(Cc2ccc(OCCn3ccnc3)cc2)cc1 | active: 9.28 µM |
| CC(C)Nc1nnc(SCC(=O)c2c(N)n(Cc3ccccc3)c(=O)n(C)c2=O)s1 | inconclusive: 2.62 µM [inhibitor, full curve, poor fit] |
| Cc1ccc(C)c(OCCC(=O)OCC(=O)Nc2ccc(Cl)cn2)c1 | inconclusive: 18.5 µM [inhibitor, partial curve, poor fit] |
| NS(=O)(=O)c1ccc(NC(=O)c2cc(-c3ccccc3O)n[nH]2)cc1 | inconclusive: 1.47 µM [inhibitor, partial curve] |
| NC(N)=NCc1cccc(I)c1 | inconclusive: 19 µM [inhibitor, single point] and inconclusive: 329 nM [inhibitor, full curve, poor fit] |

| Compound | Potency |
| --- | --- |
| COC(=O)CN1C(=S)N(c2ccccc2)C(=O)C1CC(=O)Nc1ccc(Cl)cc1 (stereo not given) | inconclusive: 14.7 µM [inhibitor, partial curve, poor fit] |
| CC(NC(=O)Nc1ccccc1O)(C(F)(F)F)C(F)(F)F | inactive |
| COc1ccccc1CN1CCN(C(CC(C)C)c2nnnn2Cc2cccs2)CC1 (stereo not given) | active: 13.1 µM |
| O=C(CSC1=Nc2ccccc2C2=NC(CC(=O)N3CCN(c4ccccc4)CC3)C(=O)N12)NCC1CCCO1 (stereo not given) | inconclusive: 18.5 µM [inhibitor, single point] |
| Cc1cc2nc(-c3ccc(SCC(=O)NC(C)C)nc3)[nH]c2cc1C | inconclusive: 18.5 µM [inhibitor, single point] |
| CC12CCC3C(CC=C4CC(O)CCC43C)C1C/C(=C\c1ccccc1F)C2=O (stereo not given) | inconclusive: 9.28 µM [inhibitor, partial curve, poor fit] |
| Cc1cccc2c1-c1sc(C(=O)Nc3cccnc3)cc1CO2 | inconclusive: 18.5 µM [inhibitor, single point] |
| Nc1nonc1-n1nnc(C(=O)N/N=C/c2ccc(OCc3ccccc3F)cc2)c1CN1CCCCC1 | inconclusive: 9.28 µM [inhibitor, single point] |
| CN1C(=O)N(CC(=O)N2CCN(c3ccccc3F)CC2)C(=O)C12CCCCC2 | inconclusive: 18.5 µM [inhibitor, single point] |
| COc1cc2c(cc1OC)C(=O)C(CC1CCN(Cc3ccccc3)CC1)C2 (stereo not given) | inconclusive: 10.7 µM [inhibitor, partial curve] |
| O=[N+]([O-])c1ccc(-c2c(O)c3ccccc3c3nc4ccccc4nc23)cc1 | inconclusive: 0.928 µM [inhibitor, full curve, poor fit] |
| CCCCS(=O)(=O)N1CCN(S(=O)(=O)c2cccs2)CC1 | inactive |
| CCN(CC(=O)Nc1ccc(NC(C)=O)cc1)C(=O)COc1ccccc1-c1ccccc1 | inconclusive: 11.7 µM [inhibitor, single point] |
| COc1ccc(N(CC(=O)Nc2ccc(S(=O)(=O)N3CCOCC3)cc2)S(=O)(=O)c2ccc(F)cc2)cc1 | active: 13.1 µM |
| Cc1ccc(-n2c(CNc3ccc(F)cc3)nnc2SCC(=O)N2CCCC2)cc1 | inconclusive: 13.1 µM [inhibitor, partial curve, poor fit] |
| C[C@H]1CCC(=O)N([C@H](CSc2ccccc2)Cc2ccccc2)CC1 | inconclusive: 4.15 µM [inhibitor, partial curve, poor fit] |
| COc1ccc2c(CC(=O)N(C)CC3COc4ccccc4O3)coc2c1 (stereo not given) | inconclusive: 18.5 µM [inhibitor, single point] |
| O=c1c2ccc([N+](=O)[O-])cc2ncn1CCOc1ccc(Cl)cc1 | inconclusive: 16.5 µM [inhibitor, single point] |
| COc1cccc(OCc2cc(C(=O)NC(C)c3cnn(C)c3C)no2)c1 (stereo not given) | inactive |
| CCOC(=O)c1cnn(-c2nc3sc4c(c3c(=O)[nH]2)CCCC4)c1N | inconclusive: 1.47 µM [inhibitor, partial curve, poor fit] |
